# Test results published in the supplement of paper PMC12217912.
# Some of the results follow. Sequences were assembled here from the parent chain. Values near 0.05 are background.
# B1: TEV protease; numbered along this chain (parent)
# chain: MGESLFKGPRDYNPISSSICHLTNESDGHTTSLYGIGFGPFIITNKHLFRRNNGTLVVQSLHGVFKVKDTTTLQQHLVDGRDMIIIRMPKDFPPFPQKLKFREPQREERICLVTTNFQTKSMSSMVSDTSCTFPSGDGIFWKHWIQTKDGQCGSPLVSTRDGFIVGIHSASNFTNTNNYFTSVPKNFMELLTNQEAQQWVSGWRLNADSVLWGGHKVFMVKPEEPFQPVKEATQL
# Variants of: B1
# Assay: raw area under fraction-flipped curve 0-4 h after induction (AUC4h, not background-subtracted), DNA-recorder readout of cleavage of the substrate (dimensionless); higher = more cleavage of the substrate by the protease variant
# Conditions: temperature: 34 °C; time window: 0-4 h after rhamnose induction
# Description: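 In vivo DNA recorder in E. coli TOP10(DE3) ΔrhaA at 34 °C. Each TEVp single-site mutant (parent TEVp 0) is paired with a single-site variant of the 7-mer TEVs (canonical ENLYFQ|S). The substrate sits between flexible linkers in a Bxb1-sfGFP-TEVs-SsrA fusion, so cleavage stabilises Bxb1 and speeds flipping of a recombination array, read by NGS. The value is the raw area under the fraction-flipped curve over 0-4 h after rhamnose induction (AUC4h), with ≥20 reads per time point. It is not background-subtracted; inactive controls average about 0.047.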
# 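Also: Bxb1 expression induced with 0.2% (w/v) L-rhamnose at OD600 near 0.5, cultures sampled hourly, flipped fraction per protease–substrate barcode pair counted by paired-end Illumina sequencing.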
Variant,area with substrate ECLYFQS,area with substrate EELYFQS,area with substrate EGLYFQS,area with substrate ELLYFQS,area with substrate EMLYFQS,area with substrate EPLYFQS,area with substrate ETLYFQS,area with substrate EVLYFQS,area with substrate EDLYFQS,area with substrate ERLYFQS,area with substrate ESLYFQS,area with substrate EFLYFQS,area with substrate EILYFQS,area with substrate EKLYFQS,area with substrate EHLYFQS,area with substrate EYLYFQS,area with substrate EQLYFQS,area with substrate EWLYFQS
F117L,0.0773,0.12,0.11,0.097,0.118,0.168,0.132,0.11,–,–,–,–,–,–,–,–,–,–
K120T,–,–,0.0995,–,0.0923,–,–,–,0.0979,0.0608,0.0851,–,–,–,–,–,–,–
K120E,0.0801,0.106,0.101,0.0755,–,–,0.114,0.0992,–,0.108,0.0981,0.0751,0.119,0.103,–,–,–,–
I145R,–,–,–,–,0.0755,–,0.0525,0.0598,0.0674,0.0668,0.0556,0.0472,–,0.054,0.0691,0.047,–,–
T174Y,0.107,–,0.09,–,0.136,–,0.108,0.0999,–,–,–,0.104,–,0.114,–,–,0.108,0.0891
K216P,0.0785,–,–,–,–,–,–,–,0.132,–,–,–,–,–,–,–,–,–
K216A,0.0971,0.0924,–,–,0.117,–,–,–,–,–,–,–,0.094,0.11,–,–,–,0.0853
K216N,0.107,–,–,0.0805,0.0947,–,–,0.094,–,0.0933,–,0.0986,0.0863,0.116,0.109,–,0.0754,–
K216C,0.0972,–,–,–,–,0.0804,–,–,–,0.117,–,–,–,–,0.0782,–,–,–
T176P,0.0586,0.065,–,–,–,–,–,0.0536,0.0691,–,0.0608,–,0.0557,–,–,–,0.0518,0.0546
I167E,–,–,–,–,–,0.0602,–,0.0402,0.0426,–,–,–,–,–,–,0.0538,–,–
A232Y,0.125,0.118,0.0938,0.088,0.114,0.0969,0.138,–,–,0.0762,0.121,0.118,0.0948,0.103,0.121,–,0.12,–
T55Q,–,–,–,0.0852,0.114,0.107,0.14,–,0.0795,0.1,0.111,–,0.105,0.107,–,0.1,0.145,0.0852
G136E,0.0969,–,–,0.0896,0.0996,0.111,0.122,0.106,0.112,0.13,0.102,–,–,0.0569,0.0511,–,–,0.0809
G136K,0.0749,0.121,0.112,–,–,–,0.145,0.0727,0.0915,–,0.1,–,0.102,–,–,0.0836,–,0.0898
G136V,0.0837,0.127,0.0988,–,0.0987,0.108,–,0.0909,–,0.1,0.124,–,0.112,–,0.0937,0.0837,0.115,–
G136F,0.0861,0.119,0.0949,0.103,–,0.118,0.14,0.0983,0.101,0.102,0.111,0.121,0.094,0.114,0.0858,0.133,0.113,0.0596
N186V,0.123,0.108,0.0779,0.0571,–,0.0802,0.0953,0.0753,–,0.0915,–,–,0.1,0.0733,0.0938,–,–,–
